The target of one test is T1, human 4-1BB (human, UniProt Q07011, in part).
T1 construct: Bought antigen; construct not described
Kind of test: BLI (Octet), GNC on AHC sensor, 100 nM antigen as analyte, 1:1 fit. A general note: Biolayer interferometry detects binding as a change in optical thickness at a sensor tip.

The target of another test is T2, human PD-L1 (human).
T2 construct: Bought antigen; construct not described
As to the kind of experiment: BLI (Octet), GNC on AHC sensor; strong binding, dissociation too slow to quantify KD.

The text below walks through data of US20230002488A1 (SYSTIMMUNE, published 2023).

B1: SI-49P3 (antibody, human IgG1, kappa)
heavy: EIVMTQSPSTLSASVGDRVIITCQASESISSWLAWYQQKPGKAPKLLIYEASKLASGVPSRFSGSGSGAEFTLTISSLQPDDFATYYCQGYFYFISRTYVNSFGCGTKLTVLGGGGSGGGGSGGGGSGGGGSEVQLVESGGGLVQPGGSLRLSCTASGFTISTNAMSWVRQAPGKCLEWVGVITGRDITYYASWAKGRFTISRDTSKNTVYLQMNSLRAEDTAVYYCARDGGSSAITSNNIWGQGTLVTVSTGGGGSGGGGS[sequence of about 450 residues with a human IgG1 Fc not given]GGGGSGGGGSEVQLLESGGGLVQPGGSLRLSCAASGFSFSSGYDMCWVRQAPGKCLEWIACIAAGSAGITYDANWAKGRFTISRDNSKNTLYLQMNSLRAEDTAVYYCARSAFSFDYAMDLWGQGTLVTVSSGGGGSGGGGSGGGGSGGGGSDIQMTQSPSTLSASVGDRVTITCQASQSISSHLNWYQQKPGKAPKLLIYKASTLASGVPSRFSGSGSGTEFTLTISSLQPDDFATYYCQQGYSWGNVDNVFGCGTKVEIKGGGGSGGGGSGRSLVESGGGLVQPGGSLRLSCTASGFTISSYHMQWVRQAPGKCLEYIGTISSGGNVYYASSARGRFTISRPSSKNTVDLQMNSLRAEDTAVYYCARDSGYSDPMWGQGTLVTVSSGGGGSGGGGSGGGGSGGGGSDVVMTQSPSSVSASVGDRVTITCQASQNIRTYLSWYQQKPGKAPKLLIYAAANLASGVPSRFSGSGSGTDFTLTISDLEPGDAATYYCQSTYLGTDYVGGAFGCGTKVEIK
light: [sequence of about 200 residues not given]GGGGSGGGGSFLNSLFNQEVQIPLTESYCGPCPKNWICYKNNCYQFFDESKNWYESQASCMSQNASLLKVYSKEDQDLLKLVKSYHWMGLVHIPTNGSWQWEDGSILSPNLLTIIEMQKGDCALYASSFKGYIENCSTPNTYICMQRTVGGGGSGGGGSGGGGSGGGGSFLNSLFNQEVQIPLTESYCGPCPKNWICYKNNCYQFFDESKNWYESQASCMSQNASLLKVYSKEDQDLLKLVKSYHWMGLVHIPTNGSWQWEDGSILSPNLLTIIEMQKGDCALYASSFKGYIENCSTPNTYICMQRTV
In the test with human 4-1BB, B1 had a Kd of 2.75 nM. For the same molecule, in the test with human PD-L1, the binding result is on record as “binds”.

In general, Kd refers to the equilibrium constant for the complex coming apart.
